Results: the RNAGym collection of RNA variant scans (doi:10.1093/nar/gkz1192)
Read counts are not given, so values of variants with three or more changes are uncertain.

B1: CPEB3 Ribozyme (parent)
chain: UAACAGGGGGCCACAGCAGAAGCGUUCACGUCGCAGCCCCUGUCAGAUUCUGGUGAAUCUGCGAAUUCUGCUGUAUAUCUC

Variants of: B1
Test: self-cleavage, relative activity (ratio to wild type); higher = more cleavage; in vitro, sequencing
Summary of the method: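 Libraries of CPEB3 self-cleaving ribozyme mutants came from rounds of error-prone PCR and carried barcodes, which DNA sequencing matched to variants. In vitro transcription used T7 RNA polymerase at 37°C for 5 hours, with a further 15 min in DNase I before EDTA stopped the reaction; the ribozymes cleaved during both steps. The RNA was reverse transcribed with template switching and sequenced on Illumina. Relative activity is the cleaved/total read fraction of a variant divided by that of the unmutated ribozyme, averaged over three batches with at least 5 reads.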

Variant	self-cleavage
G8A A18C C32A C34U A56G U72C U80A	0.04
G7A U67C C68U U80C	0.28
G7U A21C U78C	0.15
G7U A13C C39G A45U	0.07
G7C A15G C17U C32A U72C U80C	0.05
G7A U25G A65U U72A	0.08
G7U U31A U48C A64G	0.06
G7U A18U U43A U69A	0.38
G8A A13G U25A U78C	0.05
G8A A18G G42A U43C	0.07
G8A A13G U41A	0.25
G8A A13U A20U G46A U49C	0.06
G7A U25C A65G U69C	0.08
G7C A13U U54A A64G U69A U74A	0.05
G7A U31C G70A U72C A75G U78A	0.03
G7A U54C A64G U67C	0.11
G7U A21G G55U U67C U72C U80A	0.04
G7A U41A A57G	0.2
G7A A28U U41A G42C A65G U66C U69C	0.08
G7U A21G U41C U54C A56G U80C	0.12
G7C C17U A21G U26C U66A	0.23

Variant	self-cleavage
G7U U43C U51C U80C	0.22
G7U A15G A28U A45G U54C U66C U69A	0.04
G7C G22U A47G	0.2
G7C A13U U54A A57G U72A	0.07
G7A A35U A57U U66C U72G U74C	0.12
G7A U25C U80C	0.12
G8A A15U C62U A64G U74C	0.05
G7U U25C U43A U51A	0.11
G8A A13C U58A	0.07
G7A C40U U80C	0.44
G7A G36U A45G A47G U60A U72A	0.11
G7A U25C U26C A47G A56G	0.07
G7A C14U C27U A45G U54G U74C A75U	0.04
G7A A35G A56G U74C	0.32
G7U G30C A47G C50A	0.07
G7A U26C A56G U72C U80C	0.31
G7A G8A C34U	0.07
G7C A15G A28U A45G A77G	0.26
G7C A15G U25C C40U A47C	0.23
G7U A15G U43C	0.3
G8A A15G A21G U69C U72G	0.05

Variant	self-cleavage
G8A A15G A64U	0.38
G7U C39A C62A U80A	0.04
G7A A28G U31G	0.15
G7C G24U U25A U49C U58A	0.17
G8A A13U U72C	0.27
G7A U48C A56U G63C A65U	0.07
G7A C32G U78A	0.04
G7U U31C A47G U48C U74C	0.18
G7U A20G U43C G52C U78C	0.17
G7U A20U C40A	0.06
G7U C44U U51C	0.16
G7A U25C G53U A77U	0.06
G7U A20G U26C A28U	0.17
G8A A15U A64G	0.09
G7C A18U U31A	0.21
G7U A21G U41C A56G A64G A77G U80C	0.05
G7U U54A A57U G73C	0.48
G7C A45U A56U U78C	0.19
G7U U31C G42U U48C	0.06
G7C U43C A47G	0.23
G7U U31A A56G U72C	0.09

Variant	self-cleavage
G7U U51C U72C U78C	0.27
G7A A35G C44A U80C	0.07
G7C U41A C71G	0.05
G7A C12A A20G G36C G55A G63U U67C	0.04
G7C U26C U41C G61C U69A	0.41
G7U A15G U41C U54A A57G	0.3
G7A G19A U80C	0.29
G7C C40U A57G U72A	0.16
G8A A13U U31G	0.08
G7U C14A A35U A64G	0.15
G7U A35G U54A U74C A75G	0.12
G7U U31A A47U	0.06
G7U A35U C38U U66C	0.06
G7A A64U A77G	0.06
G7A U26G U41C U49C U51A C68U	0.04
G7A U26A U48C G70C	0.14
G7A A35G C37U U54C U58C	0.08
G7U U49C U54C	0.13
G7C U43A A56G U58C	0.05
G7U A45G A64U U67C U69C	0.37
